Experimental findings from publication PMC3174244 are described below.

Assay [1] concerns the target GST linked to the C-terminal 594-775 amino acids of ICP0 (GST-E52) (herpes simplex virus type-1 (HSV-1)) (UniProt P08393). Put plainly: pull-down; only the target purified.
In assay [2] the target is SUMO-2, GAL4 DNA binding domain fusion (UniProt P61956). Description: two-hybrid.
The target in assay [3] is SUMO-1, GAL4 DNA binding domain fusion (UniProt P63165). Put plainly: two-hybrid.
The target in assay [4] is SUMO-3, GAL4 DNA binding domain fusion (UniProt P55854). Put plainly: two-hybrid.
The target in assay [5] is T1, pp71, GAL4 DNA binding domain fusion (UniProt P06726).
T1 sequence: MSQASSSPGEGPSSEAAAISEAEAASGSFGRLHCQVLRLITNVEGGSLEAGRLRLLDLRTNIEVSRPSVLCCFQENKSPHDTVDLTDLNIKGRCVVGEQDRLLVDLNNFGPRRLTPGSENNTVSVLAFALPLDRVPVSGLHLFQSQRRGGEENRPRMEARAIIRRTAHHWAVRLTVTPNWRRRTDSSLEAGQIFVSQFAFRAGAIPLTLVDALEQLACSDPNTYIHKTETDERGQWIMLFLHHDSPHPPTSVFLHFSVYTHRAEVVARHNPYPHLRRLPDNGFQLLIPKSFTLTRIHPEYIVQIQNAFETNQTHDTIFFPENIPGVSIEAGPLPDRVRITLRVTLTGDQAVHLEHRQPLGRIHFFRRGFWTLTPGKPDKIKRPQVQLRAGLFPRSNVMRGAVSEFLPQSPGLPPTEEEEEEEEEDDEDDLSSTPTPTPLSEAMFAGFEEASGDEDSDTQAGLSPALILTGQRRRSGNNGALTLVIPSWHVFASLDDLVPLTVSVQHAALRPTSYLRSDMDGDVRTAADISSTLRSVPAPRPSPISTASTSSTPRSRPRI
Put plainly: two-hybrid.

No constants are given. Whether binding was seen depends on the method and setting. For some assays here: Binding seen in cells or lysates may run through a third protein. Some entries that bind do so weakly or less than the wild type. For some assays here: Where a sequence is shown, tags or fusion partners need not be part of it.

For the substance “His-tagged SUMO-1 (from UniProt P63165 1-97)”, the binding result in assay [1] is “binds”.

“His-tagged SUMO-2 (from UniProt P61956 1-95)”: the binding entry in assay [1] is listed as “no binding”.

Take “ICP0.1–775 (wt ICP0), GAL4 activation domain fusion (from UniProt P08393 1-775)”: the binding result is “binds” in assay [2], “no binding” in assay [3] and “binds” in assay [4].

On to “ICP0.1–388, GAL4 activation domain fusion (from UniProt P08393 1-388) (domain or fragment)”, for which the binding entry in assay [2] and in assay [4] was “binds” in each case.

“hDaxx, GAL4 activation domain fusion (from UniProt Q9UER7 1-740)”: the binding entry in assay [5] is listed as “binds”.
